Measured values reported in PubChem BioAssay AID504333 (National Center for Advancing Translational Sciences (NCATS), 2011).
The campaign covered roughly 360,000 compounds. About 16,000 (4.4%) were called active. This list was built around the results that the source calls inconclusive (neither active nor inactive); the mix of calls is not that of the screen. Calls come from the whole dose curve; as a rule, active = well fitted inhibition curve with a large enough effect; inconclusive = small, poorly fitted or top-dose-only effect; inactive = no such curve, though single readings can be large or run the other way. Potencies beside an inconclusive call are fits to weak or partial responses and may not hold up.

Biological target: Bromodomain adjacent to zinc finger domain protein 2B (Homo sapiens) (UniProt Q9UIF8)
Chain of UniProt Q9UIF8 (Q9UIF8 whole entry, looked up, the tested form may be a part): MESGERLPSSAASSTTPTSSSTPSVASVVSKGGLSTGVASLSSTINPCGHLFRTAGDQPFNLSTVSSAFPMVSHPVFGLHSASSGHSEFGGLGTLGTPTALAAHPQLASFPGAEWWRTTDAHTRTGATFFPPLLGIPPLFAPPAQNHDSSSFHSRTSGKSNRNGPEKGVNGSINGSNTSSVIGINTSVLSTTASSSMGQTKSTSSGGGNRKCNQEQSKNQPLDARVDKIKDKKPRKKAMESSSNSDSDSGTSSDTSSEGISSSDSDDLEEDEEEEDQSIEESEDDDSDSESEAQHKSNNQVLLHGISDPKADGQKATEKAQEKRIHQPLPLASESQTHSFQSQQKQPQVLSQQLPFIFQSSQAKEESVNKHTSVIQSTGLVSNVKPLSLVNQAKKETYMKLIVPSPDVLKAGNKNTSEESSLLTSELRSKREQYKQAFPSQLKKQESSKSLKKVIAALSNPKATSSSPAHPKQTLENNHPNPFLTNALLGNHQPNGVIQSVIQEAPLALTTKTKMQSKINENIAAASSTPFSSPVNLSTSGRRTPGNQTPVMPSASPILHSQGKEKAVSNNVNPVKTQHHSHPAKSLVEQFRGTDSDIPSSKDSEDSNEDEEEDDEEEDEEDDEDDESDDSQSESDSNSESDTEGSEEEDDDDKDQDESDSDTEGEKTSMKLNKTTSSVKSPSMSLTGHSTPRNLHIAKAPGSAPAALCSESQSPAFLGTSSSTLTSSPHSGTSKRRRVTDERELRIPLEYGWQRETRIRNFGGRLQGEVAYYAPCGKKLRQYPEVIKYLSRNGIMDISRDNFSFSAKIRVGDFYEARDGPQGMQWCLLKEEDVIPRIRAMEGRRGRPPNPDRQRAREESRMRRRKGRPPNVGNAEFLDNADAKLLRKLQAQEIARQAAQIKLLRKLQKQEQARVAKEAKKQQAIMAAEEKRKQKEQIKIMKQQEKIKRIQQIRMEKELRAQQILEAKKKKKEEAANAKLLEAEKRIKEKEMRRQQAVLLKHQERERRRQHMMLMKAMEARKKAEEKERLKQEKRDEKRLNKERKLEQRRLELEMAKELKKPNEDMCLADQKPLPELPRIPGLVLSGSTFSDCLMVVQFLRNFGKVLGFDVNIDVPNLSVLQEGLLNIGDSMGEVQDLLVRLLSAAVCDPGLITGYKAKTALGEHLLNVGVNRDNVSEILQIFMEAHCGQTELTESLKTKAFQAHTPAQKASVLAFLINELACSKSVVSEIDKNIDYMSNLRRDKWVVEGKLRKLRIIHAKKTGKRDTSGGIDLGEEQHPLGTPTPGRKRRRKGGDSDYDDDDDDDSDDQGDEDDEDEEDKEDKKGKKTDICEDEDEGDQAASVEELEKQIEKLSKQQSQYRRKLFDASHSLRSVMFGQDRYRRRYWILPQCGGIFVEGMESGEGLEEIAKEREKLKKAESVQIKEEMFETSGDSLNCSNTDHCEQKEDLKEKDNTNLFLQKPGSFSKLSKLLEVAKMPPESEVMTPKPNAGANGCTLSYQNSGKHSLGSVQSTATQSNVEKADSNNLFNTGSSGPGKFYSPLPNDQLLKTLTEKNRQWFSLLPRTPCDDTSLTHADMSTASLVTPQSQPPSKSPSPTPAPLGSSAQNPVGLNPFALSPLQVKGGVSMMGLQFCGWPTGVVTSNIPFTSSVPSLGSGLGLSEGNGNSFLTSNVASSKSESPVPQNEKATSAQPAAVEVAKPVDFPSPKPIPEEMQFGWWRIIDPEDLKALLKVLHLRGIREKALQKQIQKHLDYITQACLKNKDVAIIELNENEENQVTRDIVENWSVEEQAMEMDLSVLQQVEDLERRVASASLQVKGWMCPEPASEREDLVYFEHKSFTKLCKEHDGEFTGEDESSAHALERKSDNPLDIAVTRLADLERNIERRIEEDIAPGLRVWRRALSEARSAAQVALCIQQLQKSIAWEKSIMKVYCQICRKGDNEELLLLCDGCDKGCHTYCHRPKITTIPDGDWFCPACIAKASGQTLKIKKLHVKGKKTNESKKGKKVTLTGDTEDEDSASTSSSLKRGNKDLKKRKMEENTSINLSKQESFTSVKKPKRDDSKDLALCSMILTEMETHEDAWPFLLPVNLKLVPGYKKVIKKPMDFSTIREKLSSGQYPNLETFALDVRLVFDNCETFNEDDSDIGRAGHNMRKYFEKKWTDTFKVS
Test: qHTS Assay for Inhibitors of BAZ2B; note: nearly all actives have a fitted effect of over 60% in size
Conditions: AlphaScreen BAZ2B-H3K14Ac peptide displacement; activity change, negative = inhibition: at 114 µM (top of the series) unless noted
In short: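 BAZ2B 50 nM plus b-H3(5-23)K14Ac 50 nM, PBS pH 7.4/0.01% Tween-20, 30 min RT; compound added (max 110 uM), 30 min RT; streptavidin donor/Ni-chelate acceptor beads 10 ug/mL final, 20 min dark; AlphaScreen read.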
% is set by controls: 0 for no effect and ±100 for the full control effect; potency is the fitted concentration of half-maximal effect; tags give direction and shape of the fitted curve.

| SMILES | Potency | activity change, negative = inhibition |
| --- | --- | --- |
| CCN(CC)S(=O)(=O)c1ccc(Cl)c(C(=O)Nc2ccc(Cl)cc2[N+](=O)[O-])c1 | inconclusive: 22.4 µM [inhibitor, full curve] | – |
| CCN(CC(=O)Nc1c(F)cccc1F)C(=O)/C=C/c1ccc(C)o1 | – | inactive: -0.666% |
| CCC1CCCCN1CC(O)COCc1cccc(OC)c1 (stereo unspecified) | – | inactive: -15.8% |
| CN(C)/N=C/c1ccc(P(c2ccc(/C=N/N(C)C)o2)c2ccc(/C=N/N(C)C)o2)o1 | active: 22.4 µM | – |
| CCC(C)(C)n1nnnc1C(c1cc2cc(OC)ccc2[nH]c1=O)N1CCc2ccccc21 (stereo unspecified) | inconclusive: 44.7 µM [inhibitor, partial curve] | – |
| COc1ccc(S(=O)(=O)Nc2ccc(N3CCOCC3)cc2)cc1Br | inconclusive: 89.1 µM [inhibitor, single point] | – |
| Cc1cccc(Nc2nnc(SCC3CCCCO3)s2)c1 (stereo unspecified) | – | inactive: -7.61% |
| COc1cccc(/C=N/NC(=O)c2[nH]c(C)c(C(=O)N/N=C/c3cccc(OC)c3)c2C)c1 | inconclusive: 79.4 µM [inhibitor, single point] | – |
| COC(=O)c1sc(N2CCN(c3ccc(Cl)cc3)CC2)nc1N | inconclusive: 28.2 µM [inhibitor, full curve] | – |
| Cc1nc2ccc(S(=O)(=O)NCC(=O)NCc3ccc4c(c3)OCO4)cc2s1 | inconclusive: 63.1 µM [inhibitor, partial curve, poor fit] | – |
| CCOC(=O)N1CCC(NC(=O)c2cnn(-c3ccc(F)cc3F)c2C2CCN(C(=O)OC(C)(C)C)CC2)CC1 | – | inactive: 12% [at 57.1 µM] |
| Cc1ccccc1NC(=O)c1ccc2c(O)c(S(=O)(=O)c3ccccc3)c(=O)[nH]c2c1 | inconclusive: 79.4 µM [inhibitor, single point] | – |
| Cc1ccc(C(=O)/C=C/c2c[nH]c3ccccc23)cc1 | inconclusive: 89.1 µM [inhibitor, single point] | – |
| COCCc1nc2ccc(C(=O)N(C)Cc3cccc(-n4nc(C)cc4C)c3)cc2o1 | – | inactive: -1.55% |
| Cn1c(=O)cc2c3c(c(N4CCCCC4)ccc31)C(=O)c1ccccc1-2 | active: 10 µM | – |
| OCCN1CCN(Cc2cc(Br)cc(Br)c2O)CC1 | inconclusive: 89.1 µM [inhibitor, single point] | – |
| C=CCN1CCN(C(c2ccccc2)c2nnnn2CCC(C)C)CC1 (stereo unspecified) | inconclusive: 79.4 µM [inhibitor, single point] | – |
| O=C1C2CCCCC2C(=O)N1c1nccs1 (stereo unspecified) | inconclusive: 100 µM [inhibitor, single point] | – |
| CC1CCCN(CCOCCOc2ccccc2-c2ccccc2)C1 (stereo unspecified) | inconclusive: 89.1 µM [inhibitor, single point] | – |
| CCN(CC)c1ccc(NC(=O)CCc2nc3cccnc3n2Cc2cccs2)c(C)c1 | inconclusive: 39.8 µM [inhibitor, partial curve] | – |
| COc1cc(/C=C2\SC(=S)N(NS(=O)(=O)c3ccccc3)C2=O)cc(OC)c1OC | inconclusive: 89.1 µM [inhibitor, partial curve] | – |
| C[C@]12CC[C@@H]3c4ccc(O[C@@H]5O[C@H](C(=O)O)[C@@H](O)[C@H](O)[C@H]5O)cc4CC[C@H]3[C@@H]1C[C@@H](O)[C@@H]2O | – | inactive: -0.63% |

| SMILES | Potency | activity change, negative = inhibition |
| --- | --- | --- |
| CCNC(=S)N(CCc1c(C)[nH]c2ccc(Cl)cc12)Cc1cccnc1 | inconclusive: 50.1 µM [inhibitor, partial curve] | – |
| Cc1cc2c(cc1C)NC(CC(=O)Nc1cccc(Cl)c1)C(=O)N2 (stereo unspecified) | inconclusive: 56.2 µM [inhibitor, partial curve, poor fit] | – |
| COc1cc(/C=N/NC(=O)C(=O)/C=C2\NC(C)(C)Cc3ccccc32)ccc1O | inconclusive: 56.2 µM [inhibitor, partial curve] | – |
| CCN1CCN(c2nc(Nc3ccc(C)c(C)c3)nc(N)c2[N+](=O)[O-])CC1 | inconclusive: 79.4 µM [inhibitor, single point] | – |
| COc1ccc(-c2nn(-c3ccccc3)cc2/C=N/NC(=S)NC(C)C)cc1OC | inconclusive: 39.8 µM [inhibitor, partial curve] | – |
| CCOc1ccccc1-c1cc(C(=O)Nc2ccc(C(=O)O)cc2)c2ccccc2n1 | inconclusive: 89.1 µM [inhibitor, single point] | – |
| O=C(C1CCCN(S(=O)(=O)c2ccc(Br)s2)C1)N1CCN(c2cccc(Cl)c2)CC1 (stereo unspecified) | – | inactive: -2.69% |
| Cc1nc(N)nc(N)c1/C=C/C(C)(C)c1ccc(Cl)cc1 | inconclusive: 79.4 µM [inhibitor, single point] | – |
| NC(Cc1c[nH]c2ccc(OCc3ccccc3)cc12)C(=O)O (stereo unspecified) | inconclusive: 50.1 µM [inhibitor, partial curve] | – |
| COCCNC(=S)Nc1ccc(N2CCCCC2)cc1 | active: 50.1 µM | – |
| Cc1ccc(S(=O)(=O)n2c([N+](=O)[O-])cnc2C)cc1C | inconclusive: 50.1 µM [inhibitor, partial curve] | – |
| CCc1ccc2c(c1)NC(c1ccc(C)cc1)=NC(c1cccs1)=N2 | active: 25.1 µM | – |
| Cc1cc(C(=O)COC(=O)c2ccc(CO)cc2)c(C)n1CC1COc2ccccc2O1 (stereo unspecified) | inconclusive: 44.7 µM [inhibitor, partial curve] | – |
| CC(Oc1ccc2c(-c3ccccc3)cc(=O)oc2c1)C(=O)NC(Cc1c[nH]c2ccc(O)cc12)C(=O)O (stereo unspecified) | inconclusive: 79.4 µM [inhibitor, single point] | – |
| O=S(=O)(c1ccc2nc(-c3ccco3)c(-c3ccco3)nc2c1)N1CCOCC1 | active: 50.1 µM | – |
| COc1ccc(-c2n[nH]c(=S)nc2-c2ccc(OC)cc2)cc1 | inconclusive: 56.2 µM [inhibitor, partial curve] | – |
| COCCCn1c(Cc2csc(Nc3cccc(Cl)c3)n2)nnc1SCC(=O)OC | – | inconclusive: -41.7% [inhibitor] |
| COc1ccc(Nc2c(-c3ccc(N4CCOCC4)cc3)nc3ncccn23)cc1OC | inconclusive: 56.2 µM [inhibitor, partial curve] | – |
| CCOc1cc(CN2CCN(S(=O)(=O)c3ccc(C)cc3)CC2)ccc1OC | active: 50.1 µM | – |
| O=S(=O)(/C=C/c1ccccc1)N1CCN(Cc2ccc3c(c2)OCO3)CC1 | inconclusive: 31.6 µM [inhibitor, full curve, poor fit] | – |
| CSc1ccc(/C=N/NC(=O)c2ccc(-n3cnnn3)cc2)cc1 | inconclusive: 70.8 µM [inhibitor, single point] | – |
| CC1Oc2ccccc2C=C1/C=C1/SC(N2CCOCC2)=NC1=O (stereo unspecified) | inconclusive: 89.1 µM [inhibitor, single point] | – |

| SMILES | Potency | activity change, negative = inhibition |
| --- | --- | --- |
| COc1ccc(S(=O)(=O)N2CCc3cc(OC)c(OC)cc3C2)cc1 | inconclusive: 50.1 µM [inhibitor, partial curve] | – |
| COc1cc(NC(=O)Nc2cccc3cccnc23)cc(OC)c1OC | inconclusive: 56.2 µM [inhibitor, partial curve] | – |
| COc1ccccc1OCCCC(=O)Nc1ccc([N+](=O)[O-])cc1Br | inconclusive: 50.1 µM [inhibitor, partial curve, poor fit] | – |
| O=C(CSCc1cc(=O)n2nc(C3CC3)sc2n1)Nc1ccccc1Cl | – | inactive: -15.6% |
| COC(=O)c1ccc(-n2c(C)cc(/C=N/Nc3nc(C)cc(=O)[nH]3)c2C)cc1 | inconclusive: 89.1 µM [inhibitor, single point] | – |
| CC(C)(C)c1cnnn1-c1ccc(/C=N/Nc2ccc([N+](=O)[O-])cc2)cc1 | – | inactive: -11.3% |
| CCCCN(CC)C(=O)c1cc2c(=O)n3ccccc3nc2n1C | – | inactive: -3.77% |
| COc1ccccc1N/N=C1\COC(C)(C)CC1=O | inconclusive: 39.8 µM [inhibitor, partial curve] | – |
| Cc1nc(-c2ccc(S(=O)(=O)N3CCN(c4cccc(C)c4C)CC3)cc2)co1 | inconclusive: 22.4 µM [inhibitor, full curve] | – |
| NC(=O)COC(=O)C12CC3CC(CC(O)(C3)C1)C2 | – | inactive: -11.2% |
| S=c1[nH]cc(-c2ccc(Cl)cc2)n1-c1ccccc1 | inconclusive: 63.1 µM [inhibitor, partial curve, poor fit] | – |
| Cc1ccc(O)c(CNc2cccc(C)n2)c1 | – | inactive: -34.6% |
| CNC(=S)Nc1ccc(Nc2ccccc2)cc1 | inconclusive: 50.1 µM [inhibitor, partial curve] | – |
| CCOc1cc(N2CCOCC2)c(OCC)cc1NC(=O)CN1CCC(Cc2ccccc2)CC1 | active: 31.6 µM | – |
| CC1CCC(C(C)C)C(OC(=O)Cn2c(-c3ccc(Br)cc3)[n+](C)c3ccccc32)C1 (stereo unspecified) | inconclusive: 70.8 µM [inhibitor, single point] | – |
| O=C(Cc1ccc(NS(=O)(=O)c2cccc(C(F)(F)F)c2)cc1)NCCN1CCOCC1 | – | inactive: -1.31% |
| COc1ccc(S(=O)(=O)N[C@@H](CSCc2ccccc2)C(=O)O)cc1 | inconclusive: 79.4 µM [inhibitor, single point] | – |
| O=S(=O)(Nc1nc2ccccc2nc1NCCO)c1cccc(Cl)c1 | inconclusive: 100 µM [inhibitor, single point] | – |
| Cc1ccc(-n2ncc(C(=O)Nc3ccc4c(c3)OCO4)c2C2CCN(C(=O)OC(C)(C)C)CC2)c(C)c1 | inconclusive: 20 µM [inhibitor, single point] | – |
| COc1ccccc1NC(C)C(=O)N/N=C/c1cccs1 (stereo unspecified) | inconclusive: 89.1 µM [inhibitor, single point] | – |
| COc1cc(-c2noc(-c3ccc(NCc4ccco4)c([N+](=O)[O-])c3)n2)cc(OC)c1OC | inconclusive: 89.1 µM [inhibitor, single point] | – |
| CN1C(=O)/C(=C/C=C2\SCCN2C)N(C)C1=S | – | inactive: -34.6% |
